Source: paper PMC4336329 (PLoS ONE, 2015)
About 14,000 (4.5%) of roughly 310,000 compounds showed an effect of 50% or more. Effects have a minus sign here. Some of the results follow.

Biological target: human ether-à-go-go-related gene (hERG) potassium channel (human, UniProt Q12809)
Assay: primary screen, population patch clamp on CHO cells stably expressing hERG
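Also: peak tail current of the secondary pulse compared with the same well before compound.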

Chain of human ether-à-go-go-related gene (hERG) potassium channel (Q12809 whole entry, looked up): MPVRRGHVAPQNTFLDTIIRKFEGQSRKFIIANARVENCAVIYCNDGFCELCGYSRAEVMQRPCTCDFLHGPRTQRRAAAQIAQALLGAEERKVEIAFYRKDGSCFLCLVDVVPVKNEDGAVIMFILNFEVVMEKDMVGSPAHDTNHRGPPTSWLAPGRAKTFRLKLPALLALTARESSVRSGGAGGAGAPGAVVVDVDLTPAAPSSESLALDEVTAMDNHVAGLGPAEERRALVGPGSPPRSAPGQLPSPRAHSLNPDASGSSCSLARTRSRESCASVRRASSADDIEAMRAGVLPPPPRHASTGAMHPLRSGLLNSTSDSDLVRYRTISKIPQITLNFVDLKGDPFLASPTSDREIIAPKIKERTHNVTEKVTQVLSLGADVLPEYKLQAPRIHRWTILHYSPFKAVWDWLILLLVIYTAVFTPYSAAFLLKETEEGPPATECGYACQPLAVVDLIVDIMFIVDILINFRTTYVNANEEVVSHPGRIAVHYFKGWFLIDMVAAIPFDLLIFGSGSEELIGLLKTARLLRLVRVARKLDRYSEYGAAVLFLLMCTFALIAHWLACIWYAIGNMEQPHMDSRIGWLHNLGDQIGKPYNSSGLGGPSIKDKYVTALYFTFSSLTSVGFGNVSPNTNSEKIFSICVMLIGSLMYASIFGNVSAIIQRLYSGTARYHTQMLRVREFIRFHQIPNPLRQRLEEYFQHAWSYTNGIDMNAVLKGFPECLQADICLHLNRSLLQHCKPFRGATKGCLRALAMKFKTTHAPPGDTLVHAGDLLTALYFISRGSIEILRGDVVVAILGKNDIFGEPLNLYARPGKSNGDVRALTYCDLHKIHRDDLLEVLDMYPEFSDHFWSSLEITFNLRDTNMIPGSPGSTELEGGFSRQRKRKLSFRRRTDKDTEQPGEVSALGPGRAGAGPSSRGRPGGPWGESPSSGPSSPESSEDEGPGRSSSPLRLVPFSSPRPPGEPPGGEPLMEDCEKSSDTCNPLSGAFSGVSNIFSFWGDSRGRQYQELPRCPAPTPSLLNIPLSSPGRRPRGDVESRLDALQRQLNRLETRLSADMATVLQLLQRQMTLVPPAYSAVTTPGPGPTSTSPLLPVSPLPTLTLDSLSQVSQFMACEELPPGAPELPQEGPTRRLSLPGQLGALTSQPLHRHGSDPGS

Row | Structure (SMILES) | hERG current change (%, negative = inhibition) at 10uM [%]
1 | CC(C(=O)N1CCN(C(=O)c2ccco2)CC1)n1sc2ccccc2c1=O (centres unmarked) | -25.1
2 | CCc1ccc(/C=N\NC(=O)c2ccc(Br)o2)s1 | -9.41
3 | O=C(Cn1c(=O)oc2ccccc21)Nc1nc(-c2ccc(Br)cc2)cs1 | -5.92
4 | O=C(NCc1ccncc1)/C(=C\c1ccc(F)cc1)NC(=O)c1ccccc1 | -70.9
5 | COC(=O)c1ccc(OCCCCN2CC(C)OC(C)C2)cc1.O=C(O)C(=O)O (centres unmarked) | -20
6 | Cc1ccc(C)c2[nH]c(=O)c(CN(Cc3ccco3)C(=S)NCC3CCCO3)cc12 (centres unmarked) | -16.5
7 | O=S(=O)(/N=C(/Nc1cccc2ccccc12)c1ccccc1)c1cccs1 | 5.15
8 | CCOC(=O)C1(Cc2ccccc2)CCN(Cc2ccon2)CC1 | 0.71
9 | CCCNC(=O)/C(=C/c1cn(S(=O)(=O)N(C)C)c2ccccc12)NC(=O)c1ccc(OC)cc1 | -17.9
10 | O=C(N/N=C\c1ccc(-c2ccccc2[N+](=O)[O-])o1)C1COc2cc3ccccc3cc2O1 (centres unmarked) | -2.2
11 | Cc1cc(-c2ccccc2)nc(N/N=C/c2ccc(N(C)C)cc2)n1 | -2.14
12 | O=C1OC2(CCCCC2)OC(=O)C1=CNc1nccs1 | 3.3
13 | Cn1cnnc1SCC(=O)N1CCC(Cc2ccccc2)CC1 | -9.68
14 | CCCCCCNc1nc(-c2ccc(OC)cc2)c(CCC(=O)O)s1 | 7.44
15 | Nc1nonc1C(=O)OCC(=O)c1ccc(Cl)cc1 | 4.6
16 | COc1cccc(-c2nn(-c3ccc(F)cc3)cc2C(=O)NCC2CCCO2)c1 (centres unmarked) | -49.7
17 | Cc1ccc(-n2c3c(c(=O)[nH]c2=O)C(C(F)(F)F)(C(F)(F)F)NC(=O)N3)cc1 | 22.2
18 | CC(=O)NC(Cc1ccccc1)c1ccc2c(c1)OCCCO2 (centres unmarked) | 5.44
19 | N#CC1=C(N)Oc2cc3c(cc2C1c1ccc(Cl)cc1)OCO3 (centres unmarked) | 9.53
20 | COc1ccc(Br)cc1S(=O)(=O)N1CCCC1 | -8.85
21 | O=C(Cn1cc([N+](=O)[O-])cn1)Nc1ccn(Cc2c(F)c(F)c(F)c(F)c2F)n1 | -35.7
22 | CCNC(=O)COC(=O)c1ccc(NS(=O)(=O)c2ccc3c(c2)OCCO3)cc1 | 14.9

Row | Structure (SMILES) | hERG current change (%, negative = inhibition) at 10uM [%]
23 | CC(=O)C1C(c2ccc(Br)cc2)c2c(noc2C)CC1(C)O (centres unmarked) | -0.615
24 | O=S(=O)(NCc1ccccc1Br)c1ccccc1Br | -14.7
25 | O=C(COC(=O)COc1ccccc1[N+](=O)[O-])Nc1ccc(S(=O)(=O)N2CCCCC2)cc1 | 3.61
26 | CC(=O)c1cccc(NC(=O)N2CCCC(C(=O)c3cc(F)ccc3F)C2)c1 (centres unmarked) | -1.41
27 | O=C1C2=C(SCCS2)C(=O)N1c1ccccc1 | 19.3
28 | CC(=O)c1cccc(Nc2nc(-c3sc(C)nc3C)cs2)c1 | 8.4
29 | COc1ccc(/C=C/C(=O)c2ccoc2)cc1 | -0.919
30 | O=C1C=C(c2cc3ccccc3s2)C[C@@H](c2ccc(F)cc2)C1 | 5.01
31 | Cc1cc(C)nc(N2CCN(S(=O)(=O)c3ccc(F)cc3)CC2)n1 | 10.1
32 | COc1ccc(C2SCC(=O)Nc3c2c(=O)[nH]n3C2CCCCC2)cc1 (centres unmarked) | 5.34
33 | O=C(CSc1nnc2ccccn12)Nc1ccc2c(c1)OCO2 | 5.35
34 | COc1ccccc1NC(=O)Nc1ccnn1C1CCN(C(=O)c2cccnc2)CC1 | 4.81
35 | Cc1ccc(C(=O)Nc2ccc(Oc3cccc(C(F)(F)F)c3)nc2)cc1 | 10.1
36 | COc1ccc2c(c1)-c1nc(NC(=O)c3ccco3)sc1CC2 | 7.14
37 | O=C(OC(C(=O)NCc1cccs1)c1ccccn1)c1cccs1 (centres unmarked) | -11.5
38 | COC(=O)c1ccc(C(=O)OC)c(=O)[nH]1 | 4.11
39 | Cc1nnc(NC(=O)C(C)Sc2nnc(-c3ccco3)n2C)s1 (centres unmarked) | 19
40 | O=C(O)c1cccc2c1C(=O)N(C1CCCC1)C2 | 11.7
41 | COc1ccccc1NS(=O)(=O)c1cc(NC(=O)c2cc(=O)[nH]c3ccccc23)ccc1N1CCOCC1 | -34.7
42 | CC(C)CCN1CCN(Cc2ccc(C#CC(C)(C)O)s2)CC1CCO (centres unmarked) | -5.82
43 | COC(=O)C1CN(C(=O)C(C)Oc2cccc(C)c2C)c2ccccc2O1 (centres unmarked) | -8.63
44 | COc1cccc(NC(=O)CC2C(=O)NC3CCCCC3N2C(=O)c2ccc(F)cc2)c1 (centres unmarked) | 11.1

Row | Structure (SMILES) | hERG current change (%, negative = inhibition) at 10uM [%]
45 | Cc1oc(-c2cccs2)nc1CN1CCN(C(C)C)C(CCO)C1 (centres unmarked) | 4.95
46 | CC(=O)c1cc2c(cc1NC(=O)Cn1cnc3ccccc3c1=O)OCO2 | -6.93
47 | CCN(CC)CCCNc1oc(/C=C/c2ccccc2)nc1C#N | -71
48 | O=S1(=O)N=C(N2CCN(c3ccc(F)cc3)CC2)c2ccccc21 | -8.87
49 | CCC1=NN2C(=N)/C(=C\c3ccc(OCCOc4ccc(NC(C)=O)cc4)cc3)C(=O)N=C2S1 | 15.2
50 | COc1ccccc1NC(=O)C1CCCN(c2ncnc3c2nc2n3CCCCC2)C1 (centres unmarked) | -45.5
51 | CC(=O)c1cccc(Nc2ccc(-c3ccccc3F)nn2)c1 | -21.6
52 | Cc1n[nH]c(C)c1S(=O)(=O)N1CCCC(C(=O)NC2CCCc3ccccc32)C1 (centres unmarked) | -0.218
53 | O=C(c1ccccc1)n1ccc2ccccc21 | -28
54 | O=C1c2ccccc2CN1CCNS(=O)(=O)c1ccc(Cl)cc1 | -7.29
55 | O=C(O)c1cccc2[nH]c(C(F)(F)F)nc12 | 10
56 | FC(F)(F)c1cnc(Sc2nnc(-c3cccs3)n2CC2CCCO2)c(Cl)c1 (centres unmarked) | -26
57 | CC1(C)OC2OC(COC(=O)c3ccccc3)C3OC(C)(C)OC3C2O1 (centres unmarked) | -8.67
58 | CC(NC(=O)c1ccco1)C(=O)N1CCCCC1 (centres unmarked) | -1.46
59 | N#C/C(=C(/O)c1ccc(S(=O)(=O)N(CCCl)CCCl)cc1)c1nc2ccccc2[nH]1 | 8.37
60 | CCOc1ccc(/C=N/NC(=O)C(C)N(c2ccc(OC)cc2)S(C)(=O)=O)cc1OCC (centres unmarked) | -1.21
61 | O=C(Nc1ccc(Cl)cc1)N1CCC(c2nc(-c3ccccc3Cl)no2)CC1 | -1.23
62 | CCN(Cc1ccccc1)C(=O)C1CCN(Cc2ccc(OC)c(OC)c2OC)CC1.O=C(O)C(=O)O | -43.4
63 | O=C(CCCN1C(=O)c2ccccc2C1=O)NCc1ccco1 | 6.15
64 | Cc1[nH]c2ccccc2c1/C=C(\C#N)S(=O)(=O)c1ccccc1 | 5.82
65 | CC1CCCCC1NC(=O)/C(C#N)=C/c1ccc(F)c(F)c1 (centres unmarked) | -9.66
66 | COCCNC(=O)c1cc2nc(-c3ccccc3)cc(C)n2n1 | 7.82

Row | Structure (SMILES) | hERG current change (%, negative = inhibition) at 10uM [%]
67 | O=C(CSc1nc2ccccc2s1)c1cc2ccccc2o1 | -6.39
68 | COc1ccc(/C=C2\SC(=O)N(CCNC(=O)CN3C(=O)NC4(CCCC4)C3=O)C2=O)cc1 | -7.84
69 | CC1CN(C(=S)Nc2ccc(Br)cc2Cl)CC(C)O1 (centres unmarked) | -14
70 | c1ccc2c(N3CCCCC3)nc(N3CCCC3)nc2c1 | -69.6
71 | COc1ccc(C(=O)NCC(=O)N=Nc2c(O)n(Cc3ccccc3)c3ccccc23)cc1OC | -23.7
72 | Cc1ccc2nc(SCC(=O)N(CC(C)C)c3c(N)n(CC(C)C)c(=O)[nH]c3=O)[nH]c2c1 | 4.17
73 | CC(Sc1nc2ccccc2[nH]1)C(=O)Nc1ccccc1F (centres unmarked) | 10
74 | COc1ccc(C(=O)Nc2ccc(C(=O)Nc3cccc(C)c3)cc2)cc1 | 21.9
75 | Cc1noc(COc2ccccc2OCC(N)=O)c1Cl | 2.16
76 | CC(NC(=O)c1cc(-c2cccnc2)nc2ccc(Br)cc12)C1CCCO1 (centres unmarked) | -12.2
77 | CN(CCC#N)C(=O)COC(=O)c1ccc2c(c1)C(=O)N(C1CCCCC1)C2=O | 12.3
78 | CC1CC(C)CN(CCCNC(=O)C2CCCN(c3ncnc4c3nc3n4CCCCC3)C2)C1 (centres unmarked) | -14.1
79 | Cc1c(NC(=S)N/N=C/c2cccc(O)c2)c(=O)n(-c2ccccc2)n1C | 0.161
80 | Cc1cc(C)c2oc(=O)cc(CN3CCN(Cc4ccccc4)CC3)c2c1 | -33.2
81 | COc1cccc(C(=O)N/N=C/c2ccc(OC)c(COc3ccccc3C(N)=O)c2)c1 | -2.25
82 | [Br-].c1ccc(-c2cn(-c3ccccc3)c3[n+]2CCS3)cc1 | -5.74
83 | O=C(O)c1cccc(Cn2c(Cl)c(/C=N/NC(=O)c3cc4ccccc4cc3O)sc2=O)c1 | 1.45
84 | C#CCn1c(=NC(=O)CSC(C)=O)sc2cc(F)ccc21 | -8.88
85 | COCc1c(C(=O)OCC(=O)N2CCCC2=O)oc2ccccc12 | 11.6
86 | N#Cc1c(=O)c2nc(NCCCO)ncc2n2c(=O)c3ccccc3[nH]c12 | 19.4
